Sequences with one replicate were seen in a single cluster, so their values are uncertain.
system: ATP; experiment: switch fluorescence ratio, 500 uM ATP over buffer (Cy3 cluster intensity, sum of 5 cycles each) (fold (ratio)); higher = stronger signal-on switching upon ATP binding; sequences stand for … in TCGTCGGCAGCGTCAGATGTGTATAAGAGACAGTTTTTTTTTTTTTTTTTTTTTTTTT…TC; conditions: aptamer strand: ATP DNA aptamer (quencher-CACCTGGGGGAGTATTGCGGAGGAAGG + anchor), 100 nM annealed; ATP concentration: 500 uM; one replicate
Procedure, shortened: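 Values give the fluorescence ratio for each switch-domain sequence, averaged from per-cluster ratios of summed target-cycle to summed buffer-cycle Cy3 intensity. The Cy3-labelled switching-strand clusters sat on a modified Illumina MiSeq flow-cell, were annealed to 100 nM quencher-labelled ATP aptamer, and were imaged in selection buffer, then after 15 min with 500 uM ATP at 22 °C. Five cycles ran with NaOH stripping and re-annealing between them, and clusters outside 100-1000 RFU were excluded.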
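Note: ATP exposure 15 min at 22 °C before imaging.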

Sequence	switch fluorescence ratio
TTCTATACAG	0.999
TTCTATAGGC	1
TTCTATGGGG	1
TTCTATTCCA	0.99
TTCTCAGCGA	3.67
TTCTCCATCC	1.12
TTCTCGCTGA	1.39
TTCTCTGTGT	1.04
TTCTGAATTA	0.976
TTCTGATAAC	1.03
TTCTGCATAA	1.23
TTCTGGAGTG	1.06
TTCTGGATGC	1.02
TTCTGGTAG	1.01
TTCTGTAGTT	1.01
TTCTGTGTCC	0.984
TTCTTAGCTG	1.03
TTCTTAGTAT	1.02
TTCTTATA	0.977
TTCTTCTT	0.979
TTCTTGAGC	1.06
TTCTTGCTAT	1.38
TTCTTTGAGC	0.989
TTCTTTGATG	0.976
TTCTTTGCAG	1.03
TTCTTTTAAA	1.02

Sequence	switch fluorescence ratio
TTGAAAACTT	0.944
TTGAAAAGCG	1
TTGAAACAAT	1.04
TTGAAACCTT	1.11
TTGAACAGTG	1.04
TTGAAGATTA	0.964
TTGAAGGTTT	1.34
TTGAAGTCCC	1.02
TTGAATATAC	2.35
TTGAATATCC	0.995
TTGAATGAGA	1.02
TTGAATTCTT	0.988
TTGACAGACT	1.01
TTGACATACC	1.33
TTGACATAGT	1.01
TTGACATTTT	1.06
TTGACCTCGT	0.996
TTGACTTAGA	0.954
TTGACTTGTA	0.991
TTGAGAAAG	1.02
TTGAGACACT	1
TTGAGAGCTC	0.942
TTGAGATGAG	0.978
TTGAGCGTAG	1.05
TTGAGGACAT	0.985
TTGAGGAGTG	1.01

Sequence	switch fluorescence ratio
TTGAGGATAA	1.01
TTGAGGCATT	2.32
TTGAGTATAG	1
TTGAGTGTGA	1.04
TTGAGTTAAG	0.998
TTGATACCTG	1.04
TTGATATTTA	0.966
TTGATCCCCG	0.983
TTGATCTCGC	1.02
TTGATGCTAA	1.09
TTGATGGCTC	0.976
TTGATGGGGG	0.99
TTGATGGTAG	0.965
TTGATGGTTA	0.989
TTGATGTA	0.951
TTGATTTATG	1.02
TTGCAAAGGA	0.969
TTGCAATCGT	1.14
TTGCAGACGA	1.12
TTGCAGTACC	1.86
TTGCAGTATG	1.1
TTGCAGTTTG	0.957
TTGCATAACG	1.02
TTGCATCCCG	0.991
TTGCATTGTT	0.982
TTGCCACTGG	1.16

Sequence	switch fluorescence ratio
TTGCCAGGGG	0.997
TTGCCCCGAT	1.07
TTGCCCGAGG	1.07
TTGCCGCCCC	1.12
TTGCCGGCAT	1.02
TTGCGATGTC	0.982
TTGCGCCAAG	1.04
TTGCGCCCGA	1.01
TTGCGCTGGT	0.997
TTGCGGAGGC	0.986
TTGCGGATCC	1.03
TTGCGTAT	0.998
TTGCGTCGCG	0.976
TTGCTAACTC	1.06
TTGCTAATTT	1
TTGCTACAAT	0.962
TTGCTCAGTG	1.08
TTGCTCGTAC	1.17
TTGCTCTTGA	1.01
TTGCTGGATA	1
TTGCTGTAAC	1
TTGCTGTCAC	1.01
TTGCTTGGAC	1.07
TTGGAAACAT	1.08
TTGGAATTT	1.03
TTGGACACA	1.05

Sequence	switch fluorescence ratio
TTGGACAGCG	1.01
TTGGACTTTC	1.04
TTGGAGAAGA	1.12
TTGGAGACCG	1.04
TTGGAGGATC	1.05
TTGGAGGATG	1.03
TTGGATAAAA	1.01
TTGGATATT	0.989
TTGGATCTGG	1.03
TTGGATGCG	0.978
TTGGATGGAG	0.938
TTGGATGTTA	1.03
TTGGATTCTA	0.958
TTGGATTGTG	0.982
TTGGCATGAC	1.07
TTGGCCTGGT	1.01
TTGGCGCTAT	0.988
TTGGCGTTAG	0.98
TTGGCTATGC	1.05
TTGGCTGATC	0.961
TTGGCTGGAA	0.995
TTGGCTGTTC	1.07
TTGGCTTACA	1.03
TTGGGAGGG	0.963
TTGGGCATGC	0.96
TTGGGCCAAT	0.969

Sequence	switch fluorescence ratio
TTGGGGCGAA	1.03
TTGGGGTGC	0.997
TTGGGTGT	1.01
TTGGTACTCC	1.07
TTGGTAGATA	0.983
TTGGTAGGCT	0.988
TTGGTCAAGA	0.908
TTGGTCGGGC	0.946
TTGGTGAGTC	1.01
TTGGTGTTAC	1.44
TTGGTTGTTC	1.03
TTGTAAGGAC	1.05
TTGTAATGAC	1.05
TTGTAATGTA	0.949
TTGTACACAC	1.36
TTGTACGCAC	1.79
TTGTAGCATT	1.09
TTGTAGGCTT	0.995
TTGTAGGG	0.995
TTGTATAGCA	1.01
TTGTCAATGA	1.02
TTGTCAGTGG	1.05
TTGTCCATGA	0.991
TTGTCCATTA	0.998
